Out of some 350,000 compounds screened, about 31,000 (8.9%) were called active. This list was built around the results that the source calls inconclusive (neither active nor inactive); the mix of calls is not that of the screen. The call rests on the fitted dose curve; in most records, active means well fitted inhibition curve with a large enough effect; inconclusive means small, poorly fitted or top-dose-only effect; inactive means no such curve, though single readings can be large or run the other way. A potency beside an inconclusive call is a rough fit, not a confirmed value.
Target: Histone-lysine N-methyltransferase EHMT2 (Homo sapiens) (UniProt Q96KQ7)
UniProt Q96KQ7, sequence (Q96KQ7 whole entry, looked up): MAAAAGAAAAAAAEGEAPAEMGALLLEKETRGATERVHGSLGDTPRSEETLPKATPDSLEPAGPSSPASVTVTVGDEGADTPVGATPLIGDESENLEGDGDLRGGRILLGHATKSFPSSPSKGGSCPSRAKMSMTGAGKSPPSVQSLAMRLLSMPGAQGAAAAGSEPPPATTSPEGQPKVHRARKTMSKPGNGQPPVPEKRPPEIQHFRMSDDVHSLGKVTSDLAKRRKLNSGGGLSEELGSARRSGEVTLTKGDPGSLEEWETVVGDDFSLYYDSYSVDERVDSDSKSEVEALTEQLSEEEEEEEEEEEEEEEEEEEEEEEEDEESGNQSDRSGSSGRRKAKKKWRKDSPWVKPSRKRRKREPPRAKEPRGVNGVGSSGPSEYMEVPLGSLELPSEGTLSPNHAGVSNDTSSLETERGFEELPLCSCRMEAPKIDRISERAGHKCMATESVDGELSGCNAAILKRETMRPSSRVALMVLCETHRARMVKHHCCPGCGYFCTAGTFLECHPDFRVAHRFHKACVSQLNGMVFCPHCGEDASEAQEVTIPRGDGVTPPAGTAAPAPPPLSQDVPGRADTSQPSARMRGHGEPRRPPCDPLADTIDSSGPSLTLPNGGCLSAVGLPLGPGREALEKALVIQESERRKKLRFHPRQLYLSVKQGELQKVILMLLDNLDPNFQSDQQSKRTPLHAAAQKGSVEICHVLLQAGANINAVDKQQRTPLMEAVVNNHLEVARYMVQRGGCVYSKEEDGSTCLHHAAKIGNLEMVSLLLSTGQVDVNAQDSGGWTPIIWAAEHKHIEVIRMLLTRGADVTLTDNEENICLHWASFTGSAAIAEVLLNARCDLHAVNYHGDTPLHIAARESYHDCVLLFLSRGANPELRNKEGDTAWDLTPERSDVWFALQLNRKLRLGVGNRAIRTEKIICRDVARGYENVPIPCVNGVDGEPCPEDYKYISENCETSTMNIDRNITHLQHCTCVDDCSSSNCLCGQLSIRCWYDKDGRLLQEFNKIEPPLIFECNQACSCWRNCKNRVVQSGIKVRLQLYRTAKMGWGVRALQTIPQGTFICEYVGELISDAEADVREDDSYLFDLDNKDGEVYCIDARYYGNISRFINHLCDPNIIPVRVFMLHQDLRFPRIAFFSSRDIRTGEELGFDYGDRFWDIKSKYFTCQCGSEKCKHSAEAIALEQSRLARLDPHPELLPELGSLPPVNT
Assay: qHTS Assay for Inhibitors of Histone Lysine Methyltransferase G9a; further: nearly all actives have a fitted effect of over 75% in size
Settings: G9a H3K9 monomethylation, AlphaScreen, 2 h; activity, negative = inhibition: at 59 µM (top of the series) unless noted
Outline: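 Signal arises when biotinylated H3K9 peptide, once monomethylated, bridges streptavidin donor and antibody-captured acceptor beads. Enzyme at 20 nM was preincubated 15 min with test compounds; peptide 500 nM and SAM 20 uM then reacted for 2 h.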
On the % scale 0 is the no-effect control and ±100 the full control effect; potency means the concentration at half of the fitted maximal effect; tags describe the fitted curve by direction and shape.

Row | Compound | activity, negative = inhibition | Potency
1 | CC(C)C1Oc2ccccc2N(CC(=O)N(Cc2ccccn2)CC2CCCO2)C1=O (stereo unspecified) | inactive: 3.53% [at 102 µM] | –
2 | CN(C)c1ccc(/C=C2\SC(=O)N(CC(O)Cn3c4ccccc4c4ccccc43)C2=O)cc1 (stereo unspecified) | inactive: 9.17% | –
3 | Cc1cc(C)c(-c2cc(NC(=O)COC(=O)c3ccc(NC(=O)CC#N)cc3)n(-c3ccccc3)n2)cc1C | – | inconclusive: 63.1 µM [inhibitor, partial curve, poor fit]
4 | N#CCCN(C(=O)CN1CCN(S(=O)(=O)c2ccc3c(c2)OCCO3)CC1)c1ccc(F)cc1 | – | inconclusive: 8.91 µM [inhibitor, single point]
5 | CCOc1ccc(CNC(=O)CSc2nnc(C)c3c(C)n(-c4ccccc4)nc23)cc1 | – | inconclusive: 5.62 µM [inhibitor, partial curve, poor fit]
6 | C=CCn1c(SCC(=O)c2ccc(OC)cc2)nnc1-c1cc2cccc(OC)c2o1 | – | inconclusive: 20 µM [inhibitor, partial curve, poor fit]
7 | Cc1ccccc1CCNC(=O)c1ccc2c(c1)c(C)c(C)n2Cc1ccccc1 | inactive: -32.1% | –
8 | Cc1nc2sc3c(NCc4ccco4)ncnc3c2c2c1COC(C)(C)C2 | – | inconclusive: 20 µM [inhibitor, single point]
9 | CCOc1cccc(CNc2ccc(O)cc2)c1OCc1ccc(Cl)cc1Cl | – | active: 2.51 µM
10 | COC(=O)Cc1[nH]n(-c2nc3ccccc3s2)c(=O)c1C(C)=Nc1ccc(OC)cc1 | – | active: 2.82 µM
11 | CCNCc1nc2cc(Cl)ccc2c(=O)[nH]1 | – | inconclusive: 56.2 µM [inhibitor, single point]
12 | Cc1ccc(Oc2ccc(NC(=O)CSc3n[nH]c(N)n3)cc2)cc1 | – | inconclusive: 11.2 µM [inhibitor, partial curve, poor fit]
13 | Cc1nc(-c2ccccn2)nc(SCC(=O)N2CCOCC2)c1Cl | – | active: 20 µM
14 | COc1ccc(OC)c(-n2cnc3cc(C(=O)NC4CCCCCC4)ccc32)c1 | – | inconclusive: 25.1 µM [inhibitor, partial curve, poor fit]
15 | Cc1cc2cc(CNC(=O)C(C)Oc3ccccc3)ccc2n1C (stereo unspecified) | inactive: -26.5% [at 102 µM] | –
16 | COC(=O)CCN(C(=O)c1cccc([N+](=O)[O-])c1)c1ccccn1 | inactive: 2.86% [at 102 µM] | –
17 | CCc1cccc(OCCCn2ccnc2)c1 | – | active: 15.8 µM
18 | O=C(/C=C/c1ccco1)NCC(=O)N/N=C/c1ccc([N+](=O)[O-])cc1 | – | inconclusive: 56.2 µM [inhibitor, partial curve, poor fit]
19 | Cc1cccc(-c2nnn3c2nc(NCCc2ccc(S(N)(=O)=O)cc2)c2cc(Cl)ccc23)c1 | inactive: -1.39% | –
20 | CCCCCCOC(=O)C1=C(C)NC(=O)NC1c1ccc(O)cc1 (stereo unspecified) | – | inconclusive: 79.4 µM [inhibitor, partial curve, poor fit]
21 | O=C(O)c1c2c(nc3ccc(Cl)cc13)CCC2 | – | active: 39.8 µM
22 | CCN(CC)c1ccc(N=Cc2ccc([N+](=O)[O-])o2)cc1 | – | active: 2.51 µM
23 | S=C(c1ccc(-c2ccccc2)o1)N1CCCCC1 | inactive: -134% | –
24 | COc1ccc(N2CCN(C(=O)c3cc4ccc5cccnc5c4[nH]3)CC2)cc1 | – | inconclusive: 25.1 µM [inhibitor, partial curve, poor fit]

Row | Compound | activity, negative = inhibition | Potency
25 | COc1ccc(-c2cc(C)nc3c(-c4ccc(OC)c(OC)c4)c(C)nn23)cc1 | – | active: 14.1 µM
26 | O=C(COc1cccnc1[N+](=O)[O-])Nc1ccccc1Sc1ccccc1 | – | inconclusive: 56.2 µM [inhibitor, partial curve, poor fit]
27 | COc1cc(NC(=O)c2ccccc2)c(OC)cc1NC(=O)CN1CCCCC1 | – | inconclusive: 39.8 µM [inhibitor, single point]
28 | COc1cc(NC(=O)COC(=O)[C@@H]2CCCN2S(=O)(=O)c2ccc(Cl)cc2)cc(OC)c1OC | – | inconclusive: 0.562 µM [inhibitor, full curve, poor fit]
29 | CCOC(=O)C(Cc1ccccc1)C(=O)Nc1nccs1 (stereo unspecified) | – | inconclusive: 56.2 µM [inhibitor, partial curve]
30 | O=C(NCC12CC3CC(CC(C3)C1)C2)c1cc2nc(-c3ccccc3)cc(C(F)(F)F)n2n1 | inactive: -1.06% | –
31 | Cc1cc(C(=O)CSc2nc3ccc(Cl)cc3[nH]2)c(C)n1CC1CCCO1 (stereo unspecified) | – | active: 44.7 µM
32 | CCC1CCCCN1CCN1C(=O)C2C(C(=O)Nc3cccc(OC)c3)C3C=CC2(O3)C1C(=O)NC1CCCCC1 (stereo unspecified) | – | inconclusive: 89.1 µM [inhibitor, single point]
33 | COc1ccc2[nH]c(=O)c(CNc3ccc(C)c(C)c3)cc2c1 | – | inconclusive: 50.1 µM [inhibitor, partial curve, poor fit]
34 | CCCCNc1c(-c2cccc(-c3cc(C(C)=O)cs3)c2)nc2ccc(C)cn12 | inactive: -16.2% [at 2.33 µM] | –
35 | COC(=O)c1cc2ccccc2c(-c2c(O)ccc3ccccc23)c1O | – | inconclusive: 25.1 µM [inhibitor, single point]
36 | O=C(C1CCCN(Cc2ccncc2)C1)N1CCc2ccccc2C1 (stereo unspecified) | – | active: 12.6 µM
37 | CCC(C)(C)n1nnnc1C(c1cc2ccc(OC)cc2[nH]c1=O)N1CCCCC1 (stereo unspecified) | – | inconclusive: 100 µM [inhibitor, single point]
38 | Cc1nc(N2CCOCC2)sc1C(=O)NN | – | inconclusive: 44.7 µM [inhibitor, partial curve]
39 | O=C(c1ccc(-c2cccc(C(F)(F)F)c2)o1)N1CCCC(C(F)(F)F)C1 (stereo unspecified) | – | inconclusive: 39.8 µM [inhibitor, full curve]
40 | O=C(O)c1ccc(-n2c(-c3ccc(Br)cc3)n[nH]c2=S)cc1 | – | inconclusive: 1.78 µM [inhibitor, full curve, poor fit]
41 | COc1ccc(OC)c(NC(=O)CCN2CCN(c3ccccc3)CC2)c1 | – | inconclusive: 4.47 µM [inhibitor, partial curve, poor fit]
42 | CS(=O)(=O)N(CC(=O)NCCSCc1ccccc1Cl)c1ccc(F)cc1 | inactive: 45.2% [at 102 µM] | –
43 | CC1CCCN(c2ccc(F)cc2N)C1 (stereo unspecified) | – | inconclusive: 25.1 µM [inhibitor, single point]
44 | C/C(=N\Nc1cccc(C(=O)O)c1)c1ccc2c(c1)Nc1ccccc1S2 | – | active: 3.16 µM
45 | Cc1cc(=O)[nH]c(SCC(=O)NCCc2ccccc2)n1 | – | inconclusive: 89.1 µM [inhibitor, single point]
46 | Cc1ccc(C(C)(C)C)c(OCCN2CCCC2)c1 | – | active: 3.55 µM
47 | COc1ccccc1Oc1nc(-c2cccnc2)nc2ccccc12 | inactive: 7.82% [at 102 µM] | –
48 | CCCCCCCCCCS(=O)(=O)N/N=C/c1ccc(O)cc1 | – | inconclusive: 17.8 µM [inhibitor, single point]

Row | Compound | activity, negative = inhibition | Potency
49 | O=C(c1ccc(Cn2cc([N+](=O)[O-])cn2)o1)N1N=C(C(F)F)CC1(O)C(F)F (stereo unspecified) | – | inconclusive: 39.8 µM [inhibitor, single point]
50 | Cc1ccc(C)c(SCC(=O)c2ccc[nH]2)c1 | – | inconclusive: 14.1 µM [inhibitor, partial curve, poor fit]
51 | Clc1ccc(N2CCN(c3ncnc4c3oc3ccccc34)CC2)cc1 | inactive: -2.48% [at 102 µM] | –
52 | CCOC(=O)c1c(-c2ccc(C)o2)csc1NC(=O)CSc1nnc(C)s1 | – | inconclusive: 35.5 µM [inhibitor, single point]
53 | CCOc1cc(C(C(=O)NCC2CCCO2)N(C(=O)Cn2nnc3ccccc32)c2ccc(OC)c(OC)c2)ccc1O (stereo unspecified) | – | active: 44.7 µM
54 | Cc1cccc(NC(=S)Nc2ccc(Cl)c(Cl)c2)c1 | inactive: 2.94% [at 102 µM] | –
55 | CCC(CC)C(=O)N1c2ccc(F)cc2CCC1C (stereo unspecified) | – | inconclusive: 79.4 µM [inhibitor, single point]
56 | CCCCOc1ccc(C(=O)N2CCN(CCc3ccccn3)CC2)cc1 | inactive: -25.6% | –
57 | Cn1c(-c2ccccc2O)cc2ccccc21 | – | inconclusive: 35.5 µM [inhibitor, single point]
58 | Fc1cc(Br)ccc1NC(=S)NCCc1ccccc1 | inactive: 68.6% [at 102 µM] | –
59 | CS(=O)(=O)N(CC(=O)N1CCN(Cc2ccc3c(c2)OCO3)CC1)Cc1ccc(Cl)cc1 | – | inconclusive: 89.1 µM [inhibitor, single point]
60 | COc1cccc2sc(N(CCN(C)C)C(=O)c3ccc4c(c3)CCCC4)nc12 | – | inconclusive: 63.1 µM [inhibitor, single point]
61 | CC1CC(C)CN(S(=O)(=O)c2cccc(C(=O)OCCN3CCCC3=O)c2)C1 (stereo unspecified) | – | inconclusive: 7.94 µM [inhibitor, single point]
62 | Cc1ccc(C(=O)Nc2ccc3oc(-c4ccc(C(C)(C)C)cc4)nc3c2)cc1 | inactive: 19.9% | –
63 | COc1ccccc1N1CCN(C(=O)c2ccc3c(Cl)c4c(nc3c2)CCCC4)CC1 | – | inconclusive: 89.1 µM [inhibitor, single point]
64 | O=C(CNC(=S)NC(=O)c1ccc(Cl)cc1)c1ccccc1 | – | inconclusive: 22.4 µM [inhibitor, single point]
65 | Cc1ccc(CNC(=O)CCCCCn2c(=O)c3sccc3n(CC(=O)N(C)c3ccccc3)c2=O)cc1 | inactive: 2.75% | –
66 | CN1CCN(CCCNC(=O)c2ccc(/C=C3\Oc4ccccc4N(Cc4ccccc4F)C3=O)cc2)CC1 | – | inconclusive: 63.1 µM [inhibitor, single point]
67 | Cc1ccc(-c2ccc(CCC(=O)O)n2-c2cccc(O)c2)cc1 | – | active: 14.1 µM
68 | CNc1nc2c(C)cccn2c(=O)c1C=Nc1ccc(OC)cc1 | inconclusive: -54.2% [inhibitor] | –
69 | CCCCn1nnnc1NCc1ccc(OC)c(OC)c1OC | inactive: 25.3% [at 102 µM] | –
70 | CC1OC(Nc2cccc3ccccc23)C(O)C(O)C1O (stereo unspecified) | – | inconclusive: 28.2 µM [inhibitor, single point]
71 | Cc1cc(C)c2cc(C(O)c3nnnn3Cc3ccccc3)c(=O)[nH]c2c1 (stereo unspecified) | – | inconclusive: 89.1 µM [inhibitor, partial curve, poor fit]

Source: PubChem BioAssay AID504332 (National Center for Advancing Translational Sciences (NCATS), 2011)
